The target of the test is T1, MICA (CHO-K1-MICA细胞表达) (Homo sapiens (Human), UniProt Q29983 24-383).
T1 construct: also called MICA蛋白
T1 sequence: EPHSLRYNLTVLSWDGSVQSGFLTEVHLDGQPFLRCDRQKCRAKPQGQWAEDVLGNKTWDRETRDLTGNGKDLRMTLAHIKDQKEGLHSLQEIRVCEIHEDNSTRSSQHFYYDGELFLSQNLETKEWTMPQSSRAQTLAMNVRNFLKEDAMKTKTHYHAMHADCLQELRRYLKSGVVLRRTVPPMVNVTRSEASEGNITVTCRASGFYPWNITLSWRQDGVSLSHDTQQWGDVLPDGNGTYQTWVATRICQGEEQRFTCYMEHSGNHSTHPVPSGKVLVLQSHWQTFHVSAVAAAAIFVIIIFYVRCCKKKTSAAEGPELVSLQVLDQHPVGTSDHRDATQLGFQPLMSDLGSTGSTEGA
Nature of the test: flow cytometry (legend of Fig. 9). For orientation: Flow cytometry measures light scatter and fluorescence of single cells or particles in a stream.

B1: NKG2D胞外区Fc融合蛋白(NKG2D-Fc) (Fc fusion)
chain: IWSAVFLNSLFNQEVQIPLTESYCGPCPKNWICYKNNCYQFFDESKNWYESQASCMSQNASLLKVYSKEDQDLLKLVKSYHWMGLVHIPTNGSWQWEDGSILSPNLLTIIEMQKGDCALYASSFKGYIENCSTPNTYICMQRTV[human IgG1 Fc not spelt out]
notes: expressed by the inventors
With B1, the binding result is on record as “binds”.
